# Results: the supplement of paper PMC3334620
# Over roughly 33,000 sequences, “E-score (-0.5 to 0.5)” has its median near -0.054; the highest 2% begin near 0.35. This is one part of the list.
# Target: T1, Stb5 (UniProt P38699)
# T1 sequence: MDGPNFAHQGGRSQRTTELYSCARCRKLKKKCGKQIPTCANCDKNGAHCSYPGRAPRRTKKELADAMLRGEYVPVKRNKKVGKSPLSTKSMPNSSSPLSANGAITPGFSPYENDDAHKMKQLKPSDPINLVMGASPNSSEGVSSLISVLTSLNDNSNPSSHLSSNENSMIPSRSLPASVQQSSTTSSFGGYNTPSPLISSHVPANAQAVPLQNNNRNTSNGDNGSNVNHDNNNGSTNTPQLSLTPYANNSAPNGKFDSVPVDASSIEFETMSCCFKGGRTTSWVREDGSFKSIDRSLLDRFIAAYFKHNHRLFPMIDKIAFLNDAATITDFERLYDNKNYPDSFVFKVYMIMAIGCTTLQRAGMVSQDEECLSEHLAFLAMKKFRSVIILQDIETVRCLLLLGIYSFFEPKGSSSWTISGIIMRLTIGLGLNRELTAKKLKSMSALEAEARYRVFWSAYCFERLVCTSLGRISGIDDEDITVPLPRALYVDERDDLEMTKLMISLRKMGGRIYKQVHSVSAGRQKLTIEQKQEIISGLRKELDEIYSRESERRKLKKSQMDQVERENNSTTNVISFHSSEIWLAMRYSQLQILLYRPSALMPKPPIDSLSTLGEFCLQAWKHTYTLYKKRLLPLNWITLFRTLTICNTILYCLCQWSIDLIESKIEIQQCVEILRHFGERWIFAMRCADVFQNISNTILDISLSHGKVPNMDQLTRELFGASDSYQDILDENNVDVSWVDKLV
# Assay: PBM E-score (8-mer binding enrichment) (E-score (-0.5 to 0.5)); higher = stronger / more preferred TF binding; most listed sequences are background and not binding sites
# Settings: protein concentration: 200 nM; construct: GST-full length
# Description: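 Universal 'all 10-mer' protein binding microarrays (Agilent AMADID 015681) probed with GST-tagged S. cerevisiae TFs (full-length or DBD) made by in vitro transcription/translation (PURExpress), about 100-200 nM. Bound TF was detected with fluorescent anti-GST. Each ungapped 8-mer (which stands for itself and its reverse complement) is scored by the PBM enrichment score (E-score), a modified Wilcoxon-Mann-Whitney statistic from -0.5 to +0.5, computed with the Universal PBM Analysis Suite. Scale: above 0.35 generally sequence-specific binding.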
row,Sequence,PBM E-score
1,TGCTGCAA,-0.177
2,CCGACCAG,0.318
3,CCGGAACC,0.217
4,CAGAGCAA,-0.231
5,CTGGTGCA,-0.122
6,CATGACTC,-0.0657
7,TCCCCCAA,-0.235
8,TGGCGGAA,0.176
9,CTGTGATC,-0.187
10,ACCGGAAA,0.221
11,GGATTTAA,0.346
12,AAATCTAT,0.00591
13,GCCCATAC,-0.237
14,CTAAGCGC,0.0471
15,CAGCCTGC,-0.236
16,ACAAGCAA,-0.0486
17,AAGGACGG,0.162
18,CGATGTAC,0.131
19,CCGTTCCG,0.295
20,GTCTACAA,-0.349
21,AGACCCAG,-0.291
22,ACCCGCCA,0.27
23,AGCTGCCG,0.168
24,ACCCCAGA,-0.232
25,GAATAATC,-0.0986

row,Sequence,PBM E-score
1,CTCGGACC,0.21
2,CAGATTAA,0.0823
3,GTCTGAAA,-0.138
4,AACCGTAA,0.0629
5,CTTTGTTC,0.101
6,GGCGCCTA,-0.013
7,AATACGGA,0.183
8,TAGAGCTA,-0.218
9,AACGAGAG,-0.107
10,GGTCTCAC,0.18
11,ATGGTACG,0.0153
12,CCCACGGA,0.199
13,AGATTAAT,0.0151
14,AAGGGTGT,-0.0235
15,AATTCGTG,-0.123
16,ATGCACAC,-0.0814
17,CAAAGCGA,-0.17
18,CCTTGCTC,-0.0279
19,CATGATAG,-0.174
20,CGAACTTC,-0.144
21,GGAATGCC,0.0678
22,AACTTACT,-0.131
23,ACGCCAGG,-0.0421
24,CAGCTAAC,-0.155
25,CCGATGTC,0.278

row,Sequence,PBM E-score
1,TCATCTCA,-0.0497
2,ATATCTTA,-0.0771
3,ACACTGGG,-0.177
4,ACCTAGGA,-0.139
5,GCCGGCAA,0.31
6,CTATTGTA,0.0558
7,AAAGGGAG,-0.275
8,CGCTTGTA,0.151
9,GAGTCACC,0.0473
10,CCCATGGA,-0.122
11,CATTGAAA,0.0729
12,AGCTGTAC,-0.123
13,ATTCATGG,-0.0559
14,GCCGCTAA,0.296
15,ATACATGA,-0.191
16,CGCCAAGA,0.139
17,CAATTCTA,-0.176
18,ACCTGCAA,-0.143
19,CGACCTTA,0.175
20,AAGTTCTA,-0.188
21,AATAGGTA,-0.154
22,TTATTGAA,-0.216
23,CGGTGGCA,0.299
24,AGATGTGC,-0.0813
25,AAAACCAT,0.0207

row,Sequence,PBM E-score
1,AGCACCAG,-0.177
2,TAACGAGA,-0.104
3,GCACCACA,-0.0487
4,CCGCCTCC,0.21
5,CCGGCCCG,0.316
6,GGTATACA,0.147
7,ATAGGAAC,-0.0118
8,ATACCTTG,-0.0313
9,AAACAGAG,-0.197
10,AGGCATAT,-0.237
11,ACTGCAGG,-0.17
12,GGGTTCCA,0.0334
13,GTGCTATA,-0.0113
14,CTTCAAGC,-0.249
15,GAGCCCTC,-0.312
16,CAGAGTTA,-0.254
17,ACGATTGA,-0.102
18,CCACCCGA,-0.143
19,CGACCGTA,0.185
20,ATAATTTA,0.0571
21,ACGTCCAG,-0.158
22,AGAAGACT,-0.279
23,CATTTGCG,0.0176
24,AATACTCT,-0.0192
25,ATCCCTCA,-0.13

row,Sequence,PBM E-score
1,CTAGCCAA,-0.231
2,AGTGCGAA,-0.0384
3,CGTACCCA,-0.111
4,AGAATCTC,-0.00282
5,TACGTTAA,-0.019
6,ATTACGGC,0.0616
7,GTTGGAAA,-0.119
8,GCTCATTA,-0.0727
9,ATTGTTTG,-0.0353
10,TCAGTTCA,-0.229
11,AAGGTAAC,0.0556
12,ACTTGCAA,-0.00221
13,ATGGGCAA,-0.182
14,TGGGCACA,-0.265
15,GTGTGAAC,-0.00609
16,AACCCTGT,-0.125
17,AGCCCTTG,-0.274
18,GATTGCTA,-0.148
19,GGGAGAAC,-0.0132
20,TAGATCGA,-0.304
21,CACTATCC,-0.0703
22,CCGATGGC,0.173
23,AAAAAAGC,-0.0868
24,GATCGGCA,0.25
25,CAATTCTG,-0.155

row,Sequence,PBM E-score
1,TGCTAAAA,-0.003
2,CGCGACCC,0.0367
3,TCGACAGA,-0.171
4,AATGGTCA,-0.0794
5,GCTGAATA,-0.241
6,ACGGAAGT,0.26
7,CGGATGTC,0.223
8,CCGTCACC,0.289
9,ACATCAGG,-0.122
10,AACGTTCT,-0.263
11,ATGCCATA,-0.249
12,AGAGGGCT,-0.135
13,ATTTAGGG,0.0429
14,ACGCATTA,-0.204
15,AGGATACT,-0.0446
16,ACCAGCAT,-0.24
17,AGAATAGA,-0.103
18,AAGCCGCC,0.245
19,AGAGTACC,-0.0547
20,ACTAAGGG,-0.00506
21,AATACCTC,-0.017
22,CTTCTCTA,-0.266
23,AGCAGTTA,-0.194
24,AGAACCAT,-0.165
25,TAATTTAA,0.00767

row,Sequence,PBM E-score
1,GATCTGCA,0.0505
2,CATAGTCC,0.0471
3,TCTTCTAA,0.00248
4,ACGCAAGC,-0.191
5,ATGATCAC,-0.193
6,ACGCCGCT,0.383
7,CACCGTGA,0.311
8,AAACCTAC,-0.153
9,ACCCGCAG,0.223
10,AACATATT,-0.109
11,GGTCATTA,0.183
12,AACACCAT,0.0943
13,ACAAAAAT,0.0108
14,AGAAGTGA,-0.118
15,ATCTTAGC,-0.174
16,CGGCGTAC,0.206
17,ATAACGCG,0.0524
18,AACGCAAA,-0.00547
19,GCATTAAA,-0.0153
20,CCGAAGGC,0.146
21,AGATGGCC,0.00411
22,GATAGCGC,0.0868
